We go through one molecule from EP2698431B1 (Chugai Seiyaku Kabushiki Kaisha, dated 2020).

Experiment in all cases: SPR pH7.4
Assay [1] addresses T1, mouse FcγRIII (mouse, UniProt P08508 31-215).
T1 construct: bought; also called mFcgRIII
T1 sequence (looked up): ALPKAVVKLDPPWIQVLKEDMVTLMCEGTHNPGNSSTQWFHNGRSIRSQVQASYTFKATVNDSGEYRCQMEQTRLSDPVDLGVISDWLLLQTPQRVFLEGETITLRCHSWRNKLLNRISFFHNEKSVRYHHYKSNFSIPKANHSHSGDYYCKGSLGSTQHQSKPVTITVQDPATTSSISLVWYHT

Assay [2] deals with T2, mouse FcγRIIb (mouse, UniProt P08101 40-217, limits assumed).
T2 construct: bought; also called mFcgRIIb; mFcgRII
T2 sequence (looked up): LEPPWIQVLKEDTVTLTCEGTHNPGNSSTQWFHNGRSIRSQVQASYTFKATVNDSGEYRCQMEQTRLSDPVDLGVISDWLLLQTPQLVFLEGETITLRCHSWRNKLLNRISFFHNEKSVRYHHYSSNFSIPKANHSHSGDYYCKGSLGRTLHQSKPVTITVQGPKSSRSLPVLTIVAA

The target of assay [3] is T3, mouse FcγRIV (mouse, UniProt A0A0B4J1G0 21-203).
T3 construct: bought; also called mFcgRIV
T3 sequence: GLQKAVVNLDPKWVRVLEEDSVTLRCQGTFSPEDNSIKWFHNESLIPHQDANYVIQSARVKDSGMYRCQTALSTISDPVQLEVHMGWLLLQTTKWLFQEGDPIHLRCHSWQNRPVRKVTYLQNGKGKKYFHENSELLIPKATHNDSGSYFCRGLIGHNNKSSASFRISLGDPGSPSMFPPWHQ

The target of assay [4] is T4, mouse FcγRI (mouse, UniProt P26151 25-297).
T4 construct: bought; also called mFcgRI
T4 sequence (looked up): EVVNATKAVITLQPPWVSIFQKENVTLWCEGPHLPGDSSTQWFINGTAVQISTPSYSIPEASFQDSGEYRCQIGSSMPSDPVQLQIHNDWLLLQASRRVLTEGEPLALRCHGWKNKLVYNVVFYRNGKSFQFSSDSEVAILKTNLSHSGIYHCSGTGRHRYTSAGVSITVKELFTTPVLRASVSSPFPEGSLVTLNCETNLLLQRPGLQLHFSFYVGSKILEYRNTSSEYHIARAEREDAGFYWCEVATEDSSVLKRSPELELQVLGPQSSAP

B1: VH3/L(WT)-IgG1-F760 (antibody)
chain 1: QVQLQESGPGLVKPSETLSLTCAVSGHSISHDHAWSWVRQPPGEGLEWIGFISYSGITNYNPSLQGRVTISRDNSKNTLYLQMNSLRAEDTAVYYCARSLARTTAMDYWGEGTLVTVSS[human IgG1 constant region with L235R S239K (EU numbers) omitted here]
chain 2: DIQMTQSPSSLSASVGDRVTITCRASQDISSYLNWYQQKPGKAPKLLIYYTSRLHSGVPSRFSGSGSGTDFTFTISSLQPEDIATYYCQQGNTLPYTFGQGTKVEIKRTVAAPSVFIFPPSDEQLKSGTASVVCLLNNFYPREAKVQWKVDNALQSGNSQESVTEQDSKDSTYSLSSTLTLSKADYEKHKVYACEVTHQGLSSPVTKSFNRGEC
B1: the binding amount in assay [1] is -15.1 RU; in assay [2], -2.2 RU; in assay [3] it was 8.1 RU; in assay [4], -1.9 RU.
